# Data from the supplement of paper PMC3334620.
# In all, about 33,000 sequences were measured (“E-score (-0.5 to 0.5)”: median about -0.043, highest 2% from about 0.37 on). The list shows a part of the results.
# Biological target: T1, Upc2 (UniProt Q12151)
# T1 sequence: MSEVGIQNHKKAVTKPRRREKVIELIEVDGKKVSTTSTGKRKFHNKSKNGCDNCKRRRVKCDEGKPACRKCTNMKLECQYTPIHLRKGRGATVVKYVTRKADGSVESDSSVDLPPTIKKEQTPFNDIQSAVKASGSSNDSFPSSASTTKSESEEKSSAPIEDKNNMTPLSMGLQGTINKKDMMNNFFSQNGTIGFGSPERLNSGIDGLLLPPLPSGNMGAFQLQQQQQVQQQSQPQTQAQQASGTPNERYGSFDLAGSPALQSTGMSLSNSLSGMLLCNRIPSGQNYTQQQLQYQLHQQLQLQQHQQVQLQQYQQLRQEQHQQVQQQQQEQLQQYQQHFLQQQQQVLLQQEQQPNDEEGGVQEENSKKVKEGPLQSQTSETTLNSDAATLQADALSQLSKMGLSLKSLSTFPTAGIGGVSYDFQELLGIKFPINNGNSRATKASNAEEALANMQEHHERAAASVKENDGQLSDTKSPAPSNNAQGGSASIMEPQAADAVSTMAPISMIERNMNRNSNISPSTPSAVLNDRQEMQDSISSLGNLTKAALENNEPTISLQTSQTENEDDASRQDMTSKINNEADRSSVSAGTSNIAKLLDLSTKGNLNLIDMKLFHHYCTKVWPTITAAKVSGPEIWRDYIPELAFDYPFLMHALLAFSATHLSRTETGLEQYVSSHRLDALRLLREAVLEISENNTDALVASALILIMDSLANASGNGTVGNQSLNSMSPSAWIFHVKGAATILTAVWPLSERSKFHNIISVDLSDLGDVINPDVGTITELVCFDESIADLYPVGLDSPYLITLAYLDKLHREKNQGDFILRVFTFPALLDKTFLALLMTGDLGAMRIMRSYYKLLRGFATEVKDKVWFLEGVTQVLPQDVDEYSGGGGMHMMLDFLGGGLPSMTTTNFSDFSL
# Experiment: PBM E-score (8-mer binding enrichment) (E-score (-0.5 to 0.5)); higher = stronger / more preferred TF binding; most listed sequences are background and not binding sites
# Conditions: protein concentration: 200 nM; construct: GST-full length
# How it was run: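 Each ungapped eight-base word and its reverse complement, pooled, received an E-score from the Universal PBM Analysis Suite. Underlying scans, normalised with masliner, recorded fluorescent anti-GST bound to GST-tagged yeast transcription factors. These were applied at about 100-200 nM to universal all-10-mer Agilent arrays double-stranded by primer extension.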
row,Sequence,PBM E-score
1,GACCCAAA,0.0391
2,GGCAAGAC,-0.0253
3,CGCCACCC,-0.0595
4,TAAGTGAA,0.0481
5,ATCACCTG,-0.276
6,GCCCTCCC,-0.166
7,AGCGATAT,0.206
8,CAAAATAC,0.0567
9,CCAATTGA,-0.181
10,GTTATTCA,0.0638
11,ATGCACTA,0.205
12,AACAGGCG,-0.0444
13,GCGTGGCA,-0.0806
14,ATAATGTA,0.108
15,CAGTGTTA,0.0185
16,ACCCGACC,0.186
17,GATCGACC,-0.0213
18,TAGGGCAA,-0.27
19,CAGTCATA,-0.0419
20,CCGCTTGA,-0.135
21,CAGCTATG,-0.0431
22,CATGGACA,-0.178
23,AGTGACAG,-0.136
24,GATCAGAA,-0.111
25,CATTCAGC,-0.213

row,Sequence,PBM E-score
1,AAGGGCAA,-0.103
2,ATACCCCG,-0.0331
3,CATGTCCA,-0.197
4,CTACCCAA,-0.0471
5,GTCGCGCA,-0.0575
6,CTACAAAG,-0.188
7,GGCCTGAA,-0.234
8,GGAAACCA,-0.29
9,CAATCAAC,-0.0667
10,ACTTGTCG,0.103
11,AGTTTCTC,-0.102
12,AAATGTAA,0.068
13,ACAGCGTA,0.192
14,GAAGGACA,0.00331
15,ACTCTACG,0.311
16,ATTCTGCG,-0.0373
17,AATCTGGC,-0.198
18,GATGCTCA,-0.0681
19,AACGAGCG,0.442
20,AAGTCGCG,0.116
21,TAAAATAA,0.07
22,CGGACTTC,-0.0609
23,GCTCGACC,-0.101
24,ACAGTAAT,-0.0738
25,GGACAGTA,0.127

row,Sequence,PBM E-score
1,CACCTGAA,0.0344
2,CTGCTTTA,0.00847
3,TCGGTTCA,0.106
4,CACCTATC,-0.0764
5,CTACCGGA,-0.35
6,ATACCATA,0.108
7,ACGCCCGT,0.271
8,CGTTGAGC,0.0875
9,TGGACGAA,-0.0418
10,AAATAACT,0.0621
11,CATTAAGG,-0.167
12,CGACACCG,0.206
13,AGCTATGG,-0.158
14,CTGGTGCC,-0.116
15,CAACCTAA,-0.0826
16,GAAAGGCA,-0.271
17,GGAGTGGA,-0.165
18,ACGGCGAA,0.254
19,ATCTGTAC,0.271
20,CATGAAAC,0.0651
21,TACGTCCA,0.117
22,CCCTGGTA,-0.129
23,GTCGACGA,0.0537
24,AGTGATCG,0.122
25,ATGAACGG,0.261

row,Sequence,PBM E-score
1,CTAGCGTC,-0.0808
2,ACTGTATA,0.15
3,AGGATCAC,-0.133
4,CCCTCAAG,-0.199
5,CTGACGTA,0.164
6,CTCGGTGA,-0.0184
7,CAAAGAAC,-0.0158
8,ACCTCAAC,0.0128
9,CCATCAGA,-0.0736
10,GTATAGAA,0.345
11,GCGCAGAC,0.0613
12,CTCCCGAC,0.0661
13,AAGGCTTC,-0.219
14,ACGCGATG,0.0853
15,CCAGAAGA,-0.179
16,CCTTTCAA,-0.0604
17,CCTACAAG,-0.0492
18,GAGAGATA,-0.0189
19,ATGATAGA,-0.0594
20,CGACTCTA,0.0472
21,CCCTGACC,-0.0503
22,CACCACAG,-0.225
23,ACCAAACA,0.208
24,ACAGCCCC,-0.0371
25,CAGAAATG,-0.163

row,Sequence,PBM E-score
1,GGGTGAGA,-0.369
2,CGGTTCAG,0.0368
3,ACTCCCAA,-0.165
4,CTCGAAAG,0.0537
5,CGTTCTAG,0.248
6,CTAGACAG,-0.209
7,ACTAGTAC,-0.0146
8,CAATGACA,-0.196
9,CTACAGCA,-0.168
10,GAGACCAA,-0.0848
11,AATTAAGA,-0.0906
12,GATCTTCA,-0.108
13,GCCTTTTA,0.141
14,ACTAAAAA,0.0796
15,ACGATGAG,0.257
16,GTGTGCAA,0.0917
17,GAGACATA,0.022
18,CGATCACA,0.0286
19,CCCTAATA,-0.235
20,GCTGTTGA,-0.152
21,GCATTCAA,0.0027
22,CATAAGTA,-0.0927
23,CGCCTGAG,-0.255
24,GAAATAAA,0.127
25,CGACCGCG,0.168

row,Sequence,PBM E-score
1,ACACACCT,0.0105
2,AATGGTAA,0.0673
3,CAAACTGA,-0.118
4,CCACCCCA,-0.202
5,CGGACGCA,0.0166
6,ATATTACG,0.254
7,CGCCTCGC,0.131
8,CGCCCGTA,0.317
9,ACCACGAG,0.0246
10,AGCTTGTC,-0.0906
11,AATGATCG,0.2
12,ATTTATAG,-0.0756
13,ATGGGACA,-0.24
14,GCACGGCC,-0.272
15,ACTATGAT,-0.199
16,ACATTAGC,0.168
17,CATTAGAA,0.112
18,ACTTACTC,-0.303
19,CAGGACAG,-0.0912
20,ATCAAATC,-0.078
21,AATTGAGA,0.0759
22,CCGATTAC,0.0565
23,GAGGCCAA,0.0795
24,GGGCACCC,-0.208
25,ACCAGTAT,0.0479

row,Sequence,PBM E-score
1,TACCACTA,0.0459
2,AAGAAACA,-0.0862
3,ACCTGGCA,-0.0766
4,ATCTTATG,-0.173
5,ACTGGGTA,0.158
6,AAATTTCA,-0.169
7,GTAGACCA,-0.114
8,AATATCGT,0.29
9,TGCTAACA,-0.196
10,CGTTTCAA,0.243
11,ATTGGATA,-0.216
12,GATGGCGA,-0.0169
13,AGAATACA,-0.0142
14,AGGGCAGG,-0.26
15,CGGGAGGA,-0.157
16,CTCCAATA,-0.167
17,CAATTAGG,-0.0068
18,ACAAAGGA,-0.0862
19,ATCGGCCG,-0.0746
20,CACCTATA,0.178
21,AGACGTCG,0.0764
22,GACGGTAA,0.0512
23,GCCCTGAC,-0.192
24,TACACTGA,0.122
25,GAAGCGAA,0.173

row,Sequence,PBM E-score
1,ATGATTAA,0.103
2,TCACACGA,0.237
3,ACAGACTG,-0.0187
4,ACATTCGT,0.375
5,AGTATCGG,-0.0323
6,AACGGGGT,0.182
7,GTAAAGAC,0.178
8,CACTGAGC,-0.194
9,GTGAGAAC,-0.188
10,AGGGATCA,-0.0474
11,ATTAATTC,0.175
12,AGCAACCC,0.0667
13,CCCTCAAA,-0.114
14,TAGCCGCA,-0.295
15,GTCATGGA,-0.185
16,CGGAAACC,-0.116
17,ACAAATGC,0.109
18,AGAAAACA,0.114
19,AAAGGACA,-0.0892
20,CATCGTTA,0.324
21,GACCTCAC,-0.212
22,TCCCAGCA,-0.123
23,CATTGTGG,-0.226
24,ATTCATTA,-0.0383
25,CGGTATAA,0.267

row,Sequence,PBM E-score
1,AACAGATT,-0.0821
2,CGGGTTTC,-0.00388
3,AAGCCGTG,-0.0887
4,AGGCCTAC,-0.0129
5,ATATCCTG,-0.0367
6,CGGTTAAC,0.239
7,GGCTTACC,-0.134
8,AAAACACT,0.0262
9,CTTCACTC,0.00635
10,CGTTAAGC,0.432
11,AAAACGCC,-0.0196
12,GAGGGCCA,-0.084
13,CTGTTGCA,-0.131
14,AGACTGGC,-0.2
15,GCTATCTA,-0.252
16,ACCTCTTC,-0.0247
17,ACCTGCGC,-0.135
18,AGGGACGC,-0.0515
19,AGGCATCG,0.212
